# Some of the results follow.
# Legend:
# Assay in all cases: glycan array binding signal (z-score within array); higher = stronger binding
# Details in all cases: glycan notation: IUPAC condensed, linker removed
# [1] = target: Gal3S(b1-4)GlcNAc(b1-3)Gal
# In short: (§1)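 The binding signal is a Z-score computed within each array. Data were drawn from 3228 arrays in the Consortium for Functional Glycomics database, restricted to those with a known protein sequence. Scores were averaged over arrays of the same protein sequence at different concentrations or buffers, and over linkers, and negative values can be taken as non-binding.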
# [2] = target: Gal6S(b1-3)[Fuc(a1-4)]GlcNAc(b1-3)Gal(b1-4)Glc
# In short: as §1
# [3] = target: GalNAc(a1-3)Gal(b1-4)Glc
# In short: as §1
# [4] = target: GalNAc(a1-3)GalNAc
# In short: as §1
# [5] = target: GalNAc(b1-4)Gal(b1-4)Glc
# In short: as §1
# [6] = target: GalNAc(b1-4)Gal3S(b1-4)Glc
# In short: as §1
# [7] = target: GalNAc3S(b1-4)Gal3S(b1-4)Glc
# In short: as §1
# [8] = target: Glc(a1-2)Glc
# In short: as §1
# [9] = target: Glc(a1-2)Glc(a1-3)Glc(a1-3)Man(a1-2)Man(a1-2)Man(a1-3)[Man(a1-3)[Man(a1-6)]Man(a1-6)]Man(b1-4)GlcNAc
# In short: as §1
# [10] = target: Glc(a1-3)Glc
# In short: as §1
# [11] = target: Glc(a1-3)Glc(a1-3)Man(a1-2)Man(a1-2)Man(a1-3)[Man(a1-3)[Man(a1-6)]Man(a1-6)]Man(b1-4)GlcNAc
# In short: as §1
# [12] = target: Glc(a1-3)Man(a1-2)Man(a1-2)Man(a1-3)[Man(a1-2)Man(a1-3)[Man(a1-2)Man(a1-6)]Man(a1-6)]Man(b1-4)GlcNAc(b1-4)GlcNAc
# In short: as §1
# [13] = target: Glc(a1-4)Glc
# In short: as §1
# [14] = target: Glc(a1-4)Glc(a1-4)Glc
# In short: as §1
# [15] = target: Glc(a1-4)Glc(a1-4)Glc(a1-4)Glc
# In short: as §1
# [16] = target: Glc(a1-4)Glc(a1-4)Glc(a1-4)Glc(a1-4)Glc
# In short: as §1
# [17] = target: Glc(a1-4)Glc(a1-4)Glc(a1-4)Glc(a1-4)Glc(a1-4)Glc
# In short: as §1
# [18] = target: Glc(a1-4)Glc(a1-4)Glc(a1-4)Glc(a1-4)Glc(a1-4)Glc(a1-4)Glc
# In short: as §1
# [19] = target: Glc(a1-6)Glc
# In short: as §1
# [20] = target: Glc(a1-6)Glc(a1-4)Glc(a1-4)Glc
# In short: as §1
# [21] = target: Glc(a1-6)Glc(a1-6)Glc
# In short: as §1
# [22] = target: Glc(a1-6)Glc(a1-6)Glc(a1-6)Glc
# In short: as §1
# [23] = target: Glc(a1-6)Glc(a1-6)Glc(a1-6)Glc(a1-6)Glc
# In short: as §1
# [24] = target: Glc(a1-6)Glc(a1-6)Glc(a1-6)Glc(a1-6)Glc(a1-6)Glc
# In short: as §1
# [25] = target: Glc(a1-6)Glc(a1-6)Glc(a1-6)Glc(a1-6)Glc(a1-6)Glc(a1-6)Glc
# In short: as §1
# [26] = target: Glc(b1-3)Glc
# In short: as §1
# [27] = target: Glc(b1-3)Glc(b1-3)Glc
# In short: as §1
# [28] = target: Glc(b1-3)Glc(b1-3)Glc(b1-3)Glc
# In short: as §1
# [29] = target: Glc(b1-3)Glc(b1-3)Glc(b1-3)Glc(b1-3)Glc
# In short: as §1
# [30] = target: Glc(b1-3)Glc(b1-3)Glc(b1-3)Glc(b1-3)Glc(b1-3)Glc
# In short: as §1
# [31] = target: Glc(b1-3)Glc(b1-3)Glc(b1-3)Glc(b1-3)Glc(b1-3)Glc(b1-3)Glc
# In short: as §1
# [32] = target: Glc(b1-4)Glc
# In short: as §1
# [33] = target: Glc(b1-4)Glc(b1-4)Glc
# In short: as §1
# [34] = target: Glc(b1-4)Glc(b1-4)Glc(b1-4)Glc
# In short: as §1
# [35] = target: Glc(b1-4)Glc(b1-4)Glc(b1-4)Glc(b1-4)Glc
# In short: as §1
# [36] = target: Glc(b1-4)Glc(b1-4)Glc(b1-4)Glc(b1-4)Glc(b1-4)Glc
# In short: as §1
# [37] = target: Glc(b1-6)Glc
# In short: as §1
# [38] = target: Glc(b1-6)Glc(b1-6)Glc
# In short: as §1
# [39] = target: Glc(b1-6)Glc(b1-6)Glc(b1-6)Glc
# In short: as §1
# [40] = target: Glc(b1-6)Glc(b1-6)Glc(b1-6)Glc(b1-6)Glc
# In short: as §1
# [41] = target: Glc(b1-6)Glc(b1-6)Glc(b1-6)Glc(b1-6)Glc(b1-6)Glc
# In short: as §1
# [42] = target: Glc(b1-6)Glc(b1-6)Glc(b1-6)Glc(b1-6)Glc(b1-6)Glc(b1-6)Glc
# In short: as §1
# [43] = target: GlcA(b1-3)Gal
# In short: as §1
# [44] = target: GlcA(b1-3)Gal(b1-3)GlcNAc
# In short: as §1
# [45] = target: GlcA(b1-3)Gal(b1-4)GlcNAc(b1-3)Gal(b1-4)Glc
# In short: as §1
binder,measurement,setting,value
"Malectin (Xenopus laevis), Q6INX3 (protein) SGLADKVIWAVNAGGESHVDVHGIHYRKDPLEGRVGRASDYGMKLPILRSNPEDQVLYQTERYNEDSFGYDIPIKEEGEYVLVLKFAEVYFAQSQQKVFDVRVNGHTVVKDLDIFDRVGHSTAHDEIIPISIKKGKLSVQGEVSTFTGKLSVEFVKGYYDNPKVCALFIMKGTADDVPMLQPHPGLE",glycan array binding signal (z-score),[1],-0.076
same,glycan array binding signal (z-score),[2],-0.075
same,glycan array binding signal (z-score),[3],-0.072
same,glycan array binding signal (z-score),[4],-0.076
same,glycan array binding signal (z-score),[5],-0.072
same,glycan array binding signal (z-score),[6],-0.072
same,glycan array binding signal (z-score),[7],-0.076
same,glycan array binding signal (z-score),[8],-0.225
same,glycan array binding signal (z-score),[9],0.052
same,glycan array binding signal (z-score),[10],0.041
same,glycan array binding signal (z-score),[11],8.46
same,glycan array binding signal (z-score),[12],-0.171
same,glycan array binding signal (z-score),[13],-0.012
same,glycan array binding signal (z-score),[14],-0.216
same,glycan array binding signal (z-score),[15],-0.148
same,glycan array binding signal (z-score),[16],-0.19
same,glycan array binding signal (z-score),[17],-0.148
same,glycan array binding signal (z-score),[18],0.01
same,glycan array binding signal (z-score),[19],-0.214
same,glycan array binding signal (z-score),[20],-0.06
same,glycan array binding signal (z-score),[21],-0.212
same,glycan array binding signal (z-score),[22],0.133
same,glycan array binding signal (z-score),[23],0.876
same,glycan array binding signal (z-score),[24],1.32
same,glycan array binding signal (z-score),[25],-0.065
same,glycan array binding signal (z-score),[26],-0.223
same,glycan array binding signal (z-score),[27],-0.223
same,glycan array binding signal (z-score),[28],-0.218
same,glycan array binding signal (z-score),[29],-0.196
same,glycan array binding signal (z-score),[30],-0.092
same,glycan array binding signal (z-score),[31],-0.159
same,glycan array binding signal (z-score),[32],-0.225
same,glycan array binding signal (z-score),[33],-0.216
same,glycan array binding signal (z-score),[34],-0.223
same,glycan array binding signal (z-score),[35],-0.201
same,glycan array binding signal (z-score),[36],-0.198
same,glycan array binding signal (z-score),[37],-0.223
same,glycan array binding signal (z-score),[38],-0.212
same,glycan array binding signal (z-score),[39],-0.216
same,glycan array binding signal (z-score),[40],-0.176
same,glycan array binding signal (z-score),[41],-0.079
same,glycan array binding signal (z-score),[42],-0.115
same,glycan array binding signal (z-score),[43],-0.076
same,glycan array binding signal (z-score),[44],-0.069
same,glycan array binding signal (z-score),[45],-0.072

# From the supplement of paper PMC8728848
